Assay results taken from US8440649B2 (priority 2009, dated 2013).

Test system: TGEV
Assay: microbe, parasite or virus in culture
Conditions: Alphacoronavirus 1, 6 h, read-out: EC50 for inhibiting TGEV S and N protein expression

Row | SMILES | EC50
1 | COc1cc2c3c(c4cc(OC)c(OC)cc4c2cc1O)CN1CCCCC1C3 (centres unmarked) [Compound 14] | < 100 nM
2 | COc1ccc2c(c1)c1c(c3cc(OC)c(OC)cc32)CN2CCCC2C1 (centres unmarked) [Compound 3] | < 100 nM
3 | COc1ccc2c3c(c4cc(OC)c(OC)cc4c2c1)CN1CCCC1C3 (centres unmarked) [Compound 2] | < 100 nM
4 | COc1ccc2c(c1)c1c(c3cc(OC)c(OC)cc32)CC2CCCN2C1 (centres unmarked) [Compound 4] | < 100 nM
5 | COc1cc2c3c(c4cc(OC)c(OC)c(OC)c4c2cc1OC)CC1CCCN1C3 (centres unmarked) [Compound 22] | < 500 nM
6 | COc1cc2c3c(c4cc(OC)c(OC)cc4c2cc1OC)C(O)C1CCCCN1C3 (centres unmarked) [Compound 12] | < 100 nM
7 | COc1cc2c3c(c4cc(OC)c(OC)c(OC)c4c2cc1OC)CC1CCCCN1C3 (centres unmarked) [Compound 26] | < 500 nM
8 | COc1cc2c3c(c4ccc(O)c(OC)c4c2cc1OC)C(O)C1CCCN1C3 (centres unmarked) [Compound 42] | < 100 nM
9 | COc1cc2c3c(c4cc(OC)c(OC)cc4c2cc1OC)CN1CCCCCC1C3 (centres unmarked) [Compound 20] | < 500 nM
10 | COc1cc2c(cc1O)c1c(c3cc(OC)c(OC)cc32)CN2CCCC2C1O (centres unmarked) [Compound 30] | < 100 nM
11 | COc1cc2c3c(c4ccc(O)cc4c2cc1OC)C(O)C1CCCN1C3 (centres unmarked) [Compound 31] | < 100 nM
12 | COc1cc2c3c(c4cc(OC)c(OC)cc4c2cc1OC)CN1CCCC1C3 (centres unmarked) [Compound 1] | < 100 nM
13 | COc1cc2c(cc1O)c1c(c3cc(OC)c(OC)cc32)CN2CCCCC2C1 (centres unmarked) [Compound 13] | < 100 nM
14 | COc1ccc2c3c(c4cc(OC)c(OC)cc4c2c1)CN1CCCC1C3O (centres unmarked) [Compound 6] | < 100 nM
15 | COc1cc2c(cc1O)c1c(c3cc(OC)c(OC)cc32)CC2CCCCN2C1 (centres unmarked) [Compound 16] | < 100 nM
16 | COc1cc2c3c(c4cc(OC)c(OC)cc4c2cc1OC)C(O)C1CCCN1C3 (centres unmarked) [Compound 29] | < 500 nM
17 | COc1ccc2c3c(c4cc(OC)c(OC)cc4c2c1)CC1CCCN1C3 (centres unmarked) [Compound 5] | < 100 nM
18 | COc1cc2c3c(c4cc(OC)c(OC)cc4c2cc1OC)CN1CCCCC1C3 (centres unmarked) [Compound 11] | < 100 nM
19 | COc1cc2c3c(c4cc(OC)c(OC)cc4c2cc1O)CC1CCCCN1C3 (centres unmarked) [Compound 15] | < 100 nM
20 | COc1ccc2c3c(c4cc(OC)c(OC)cc4c2c1)CN1CCCC1C3OC(C)=O (centres unmarked) [Compound 32] | < 500 nM
21 | COc1cc2c3c(c4cc(OC)c(OC)cc4c2cc1OC)C[N+]1([O-])CCCC1C3 (centres unmarked) [Compound 8] | < 500 nM
22 | COc1cc2c3c(c4cc(OC)c(OC)cc4c2cc1OC)C[N+]1([O-])CCCCC1C3 (centres unmarked) [Compound 18] | < 100 nM
23 | COc1ccc2c3c(c4cc(OC)c(OC)cc4c2c1)CN1CCCCC1C3 (centres unmarked) [Compound 24] | < 500 nM
